From ChEMBL document CHEMBL4888484, “Replenishing the malaria drug discovery pipeline: Screening and hit evaluation of the MMV Hit Generation Library 1 (HGL1) against asexual blood stage Plasmodium falciparum ,using a nano luciferase reporter read-out” (2022)
About 540 (0.36%) of roughly 150,000 compounds showed an effect of 50% or more. Some of the results follow.

What follows are compounds tested on Plasmodium falciparum (assay: Primary screen in NF54 nanoGlo assay, in single point, at 2uM, 72h; a lower Z score goes with more inhibition). Conditions: timepoint 72 hour.
Assay type: functional, Erythrocyte
For Cc1[nH]ncc1C(=O)N1CCC(C)C1CO (configuration not stated), the “% Inhibition” value was -5% and the Z score was 0.53. CCOc1ncc(C(=O)N2CC(C)C(C)C2)cc1Cl (configuration not stated) was tested, and the “% Inhibition” value was -2% and the Z score was 0.19. In the case of CCC[C@H](NS(=O)(=O)N(C)C1CCOCC1)C1CCCCC1, the “% Inhibition” value is reported as -3% and the Z score is reported as 0.32. CC(=O)c1c(C)nn(C(=O)c2ccco2)c1C was tested, and the “% Inhibition” value was 3% and the Z score was -0.39. CN(C(=O)c1ccc2[nH]ccc2c1)C1CCCC1S(C)(=O)=O (configuration not stated) was tested, and the “% Inhibition” value was -2% and the Z score was 0.21. O=C(Nc1nnc(NC(=O)c2ccc(F)cc2)[nH]1)c1ccc(F)cc1 was tested, and the “% Inhibition” value was 2% and the Z score was -0.29. For Cc1ccc(F)cc1OCc1ncnn1C, the “% Inhibition” value was 0% and the Z score was 0. For CC1CN(CC2CCCO2)CCC1NCCOc1ccc(F)cc1F (configuration not stated), the “% Inhibition” value was 3% and the Z score was -0.43. With Cc1nnccc1NC(=O)N1CCC[C@@H]1CCC1CCCCC1 the “% Inhibition” value was 10% and the Z score was -1.21. For O=C1C[C@H](c2cc(F)ccc2F)c2c(-c3ccc(Cl)cc3)n[nH]c2N1, the “% Inhibition” value was 7% and the Z score was -0.86. For CCCC(=O)N(Cc1[nH]c(C)c(C(=O)OCC)c1C)C1CCCCC1, the “% Inhibition” value was -14% and the Z score was 1.85. In the case of CCOC(=O)C(C)(C)c1csc([C@H](C)OCC)n1, the “% Inhibition” value is reported as -3% and the Z score is reported as 0.45. In the case of C[C@H](O)C1CN(Cc2cc(Cl)ccc2Br)C1, the “% Inhibition” value is reported as 6% and the Z score is reported as -0.87. Cc1cccc(C)c1OCC(=O)Nc1ccc2c(c1)N(S(N)(=O)=O)CC2 was tested, and the “% Inhibition” value was 4% and the Z score was -0.58. CC1=NN([C@H](C#N)c2ccc(N(C)C)cc2)C(C)(C)C1 was tested, and the “% Inhibition” value was -2% and the Z score was 0.43. CCc1csc(CCNC(=O)N2C[C@H](O)[C@@H](N3CCCC3)C2)n1 was tested, and the “% Inhibition” value was -19% and the Z score was 2.48. CCS(=O)(=O)C1CN(S(=O)(=O)CCC(F)(F)F)C1 was tested, and the “% Inhibition” value was -4% and the Z score was 0.67. In the case of C[C@H](Oc1ncccc1C(=O)NCC1(CCO)CC1)C(F)(F)F, the “% Inhibition” value is reported as 2% and the Z score is reported as -0.3. In the case of Cc1ncoc1C(=O)N1CCN(CC2C[C@@H]3C=C[C@H]2C3)CC1 (some centres not stated), the “% Inhibition” value is reported as -4% and the Z score is reported as 0.55. With CCc1nnc(NC(=O)C2(C)COC(c3ccccc3)OC2)s1 (configuration not stated) the “% Inhibition” value was 30% and the Z score was -0.4. For CC[C@H](NC(=O)COC)C(C)(C)c1ccccc1, the “% Inhibition” value was -5% and the Z score was 0.65. With Cc1ccc(C(=O)Nc2cc(C3CCCCC3)[nH]n2)c(=O)[nH]1 the “% Inhibition” value was 0% and the Z score was -0.02. With O=C(N[C@H]1C[C@@H]2C[C@H]1N(S(=O)(=O)c1cccnc1)C2)c1cccs1 the “% Inhibition” value was -11% and the Z score was 1.76. In the case of CCN(Cc1nc2c(s1)C[C@@H](C)CC2)C(=O)c1cccnc1OC, the “% Inhibition” value is reported as -2% and the Z score is reported as 0.22. For CC(C(=O)N1CCOC(Cn2cccn2)C1)n1cccn1 (configuration not stated), the “% Inhibition” value was -5% and the Z score was 0.81. Cc1cc(C)nc(CN(C)C(=O)c2cnc(O)c(Cl)c2)c1 was tested, and the “% Inhibition” value was -6% and the Z score was 0.83. Cc1cc(C(=O)N2CC[C@H]3[C@H](CCC(=O)N3CCCn3ccnc3)C2)no1 was tested, and the “% Inhibition” value was -10% and the Z score was 1.18. For Cc1cc(C)nc(-n2nc(-c3ccc(F)cc3)cc2O)n1, the “% Inhibition” value was -1% and the Z score was 0.13. With COC(=O)c1cc2c(-c3ccccc3)nn(-c3ccccc3)c2[nH]1 the “% Inhibition” value was 7% and the Z score was -0.68. Nc1ccc2c(c1)CN(C1CCCC1)C2 was tested, and the “% Inhibition” value was -7% and the Z score was 1.01. In the case of N#CCCN(CCC#N)Cc1cc2cc(F)ccc2o1, the “% Inhibition” value is reported as -9% and the Z score is reported as 1.03. CC1CCCCC1NC(=O)CCNC(=O)N1CC(=O)Nc2ccccc21 (configuration not stated) was tested, and the “% Inhibition” value was 8% and the Z score was -0.97. O=C(CC1(C(=O)Nc2cccc(S(=O)(=O)N3CCOCC3)c2)CCCCC1)NC1CC1 was tested, and the “% Inhibition” value was -46% and the Z score was 5.39. With CCN(CC)c1nc2nonc2nc1Nc1ccccc1F the “% Inhibition” value was 30% and the Z score was -3.89. With COc1cc(OC)cc(N2CC[C@H](N(C)Cc3ccnn3C)C2=O)c1 the “% Inhibition” value was 8% and the Z score was -1.21. CC(C)(C)c1n[nH]c([C@@H]2CN(Cc3noc(C4CC4)n3)CCO2)n1 was tested, and the “% Inhibition” value was 30% and the Z score was -3.43. CCOc1ccc(N(C)C[C@H](O)COC)cc1 was tested, and the “% Inhibition” value was 6% and the Z score was -0.74. O=C(COCc1ccccc1)N1CC[C@H](OCC2CC2)C1 was tested, and the “% Inhibition” value was -10% and the Z score was 1.59. For CCCNC(=O)c1ccc(Cl)c(N)c1, the “% Inhibition” value was -6% and the Z score was 0.8. In the case of Cc1ccccc1-c1nnc2n1C(C)(C)Cc1c-2ccc2ccccc12, the “% Inhibition” value is reported as 4% and the Z score is reported as -0.62. With CCn1c(-c2cc(NC(=O)Cc3cccc(OC)c3)[nH]n2)cc2ccccc21 the “% Inhibition” value was -6% and the Z score was 0.83. For O=C(C[C@@H]1NC(=O)N(CCc2c[nH]c3ccccc23)C1=O)NC[C@@H]1CCCN2CCCC[C@H]12, the “% Inhibition” value was -9% and the Z score was 1.2. For Cc1cc(C(=O)N2C[C@@H](COCC3CC3)[C@H](c3ccccn3)C2)[nH]n1, the “% Inhibition” value was -3% and the Z score was 0.62. For O=C(NC1CC1)c1cccc(NC(=O)N2CC3(CCCCC3)C2)c1, the “% Inhibition” value was 2% and the Z score was -0.38. Cc1cc(C)c(CNC(=O)N2CCN(CCC(C)(C)C)CC2)c(=O)[nH]1 was tested, and the “% Inhibition” value was -3% and the Z score was 0.41. For CN(Cc1csc(-c2ccccc2)n1)C1CCN(S(C)(=O)=O)CC1, the “% Inhibition” value was 6% and the Z score was -1.15. With COc1ccccc1C1(CNc2ccc3nnnn3n2)CCOCC1 the “% Inhibition” value was -13% and the Z score was 1.19. In the case of C[C@@H](c1ccco1)N(C)C(=O)[C@H]1CC[C@H](C(=O)O)CC1, the “% Inhibition” value is reported as -11% and the Z score is reported as 1.21. With C[C@H](NC(=O)C(c1ccccc1)c1ccccc1)c1n[nH]c(=O)[nH]1 the “% Inhibition” value was -3% and the Z score was 0.54. With CCn1nc(C)c(C(=O)N2CC[C@](C)(O)[C@H](CC(C)C)C2)c1C the “% Inhibition” value was -11% and the Z score was 1.99. In the case of Cc1ncccc1OC[C@@H](O)COC(C)C, the “% Inhibition” value is reported as -10% and the Z score is reported as 1.52. For O=C(c1cnc(CN2CCCC2)s1)N1CCc2[nH]cnc2C1, the “% Inhibition” value was 1% and the Z score was -0.14. O=C(NCc1cnn2c1CCCC2)c1ccccc1Cl was tested, and the “% Inhibition” value was 7% and the Z score was -1.1. With O=C(C1=CCCC1)N1CCC[C@H](c2[nH]ncc2-c2ccccc2)C1 the “% Inhibition” value was 0% and the Z score was 0.07. With c1csc(-c2cn(CCOC3CCC3)nn2)c1 the “% Inhibition” value was -2% and the Z score was 0.32. For c1coc(-c2noc(CN3CC[C@@]4(CCCOC4)C3)n2)c1, the “% Inhibition” value was -8% and the Z score was 0.96. O=C(c1cccc2cn[nH]c12)N1CCCC1 was tested, and the “% Inhibition” value was 0% and the Z score was 0.05. In the case of CN(C)[C@@](C)(C(=O)NCc1cncn1C)c1ccccc1, the “% Inhibition” value is reported as -2% and the Z score is reported as 0.24. O=C(NCc1cccc(F)c1)c1ccc(-c2cccs2)nc1 was tested, and the “% Inhibition” value was -25% and the Z score was 4.82. For Cc1cccc(N2CCN(C(=O)c3nc4cccnc4n(CC(C)C)c3=O)CC2)c1, the “% Inhibition” value was 1% and the Z score was -0.09. O=C(NCc1nccs1)c1cc(Br)cnc1C1CC1 was tested, and the “% Inhibition” value was -8% and the Z score was 1.18. With CC(O)CC1CCCN1C(=O)C1CCN(c2ccccc2F)C1 (configuration not stated) the “% Inhibition” value was -4% and the Z score was 0.94. In the case of CC(C)(C)NS(=O)(=O)c1cc(C(=O)N2CCCCCC2)cs1, the “% Inhibition” value is reported as -6% and the Z score is reported as 0.58. For Cc1cccc(C(=O)NC2CCN(Cc3ccccc3)CC2)n1, the “% Inhibition” value was 3% and the Z score was -0.64. With CCOc1cccn2cc(CCN3C(=O)c4ccccc4C3=O)nc12 the “% Inhibition” value was -8% and the Z score was 1.12. With CCOC(=O)[C@H](Cc1ccncc1)NC(=O)Cc1ccc(Cl)cc1 the “% Inhibition” value was -12% and the Z score was 1.43. With Cc1ccc2c(c1)CN(CCC(=O)NCc1cccc(F)c1F)C[C@H](C)O2 the “% Inhibition” value was -13% and the Z score was 1.63. In the case of O=C(COC(=O)c1cnn(CCO)c1-c1ccccc1)Nc1ccc(F)c(F)c1, the “% Inhibition” value is reported as -8% and the Z score is reported as 1.09. With CC[C@H]1CN(S(=O)(=O)c2ccccc2)CC[C@H]1CC(=O)NC1CC1 the “% Inhibition” value was -1% and the Z score was 0.2. With Cc1cnc(NC(=O)Cc2cccc3ccccc23)s1 the “% Inhibition” value was -10% and the Z score was 1.08. CC1=CC(C2CC(=O)N(c3ccc(Cl)cc3)C2=O)CC2C(=O)N(c3ccc(Cl)cc3)C(=O)C12 (configuration not stated) was tested, and the “% Inhibition” value was 41% and the Z score was -5.28. In the case of CC1CCN(C(=O)Cn2c(=O)n(-c3ccc(F)c(Cl)c3)c(=O)c3sccc32)CC1, the “% Inhibition” value is reported as -9% and the Z score is reported as 1.01. In the case of CCn1ncnc1-c1nccn1Cc1ccc(C(F)(F)F)cc1, the “% Inhibition” value is reported as -9% and the Z score is reported as 1.25. For O=C(NCCNC(=O)c1ccco1)c1ccncc1, the “% Inhibition” value was -38% and the Z score was 4.47. With CN(C)C(=O)c1ccc(Cl)cc1NCC[C@H]1CCCO1 the “% Inhibition” value was -5% and the Z score was 0.88. OCc1ccc(F)c(CN2CC[C@H](Nc3ncccn3)C2)c1 was tested, and the “% Inhibition” value was -15% and the Z score was 2.96. Cc1sc(S(=O)(=O)N2CCCC2)cc1NC(=O)c1ccc(N(C)C)cc1 was tested, and the “% Inhibition” value was 3% and the Z score was -0.29. CCCC(N)C(=O)NC1CCC(C)(C)CC1C (configuration not stated) was tested, and the “% Inhibition” value was -8% and the Z score was 1.18. COc1ccc(C(=O)N[C@@H]2CCC[C@@H]2C(=O)N2CCN(c3cc(C)ccc3C)CC2)cc1 was tested, and the “% Inhibition” value was -7% and the Z score was 0.97. For O=C(O)[C@@H]1CCCCN1C(=O)c1cccc2[nH]ccc12, the “% Inhibition” value was -12% and the Z score was 1.37. In the case of COc1ccc(N2CCN(C(=O)[C@H]3CCCN(c4ncnc5onc(C)c45)C3)CC2)cc1, the “% Inhibition” value is reported as -10% and the Z score is reported as 1.32. O=C(NCCC[C@H]1C=NNC1=O)c1c(O)cccc1OC(F)(F)F was tested, and the “% Inhibition” value was -5% and the Z score was 0.53. With O=S(=O)(c1cccnc1)N(CCOc1ccccc1)C[C@H]1CCCO1 the “% Inhibition” value was -5% and the Z score was 0.54. In the case of Cc1c(CCNC(=O)c2ccc(CN(C)C)o2)c2cccc3c2n1CCC3, the “% Inhibition” value is reported as 9% and the Z score is reported as -1.21. COC(=O)c1ccc(NC(=O)c2c3c(nn2-c2ccccc2)CCCC3)cc1 was tested, and the “% Inhibition” value was -12% and the Z score was 1.59. In the case of CCC(C)C(=O)Nc1c(C(=O)OC)n(CC2CCCO2)c2ncc(NC(C)C(C)(C)O)cc12 (configuration not stated), the “% Inhibition” value is reported as -3% and the Z score is reported as 0.31.
